Experimental findings from the RNAGym collection of RNA variant scans (doi:10.1093/nar/gkz1192) are described below.

The source gives no read counts; variants with many changes may rest on few reads.

B1: CPEB3 Ribozyme (parent)
chain: UAACAGGGGGCCACAGCAGAAGCGUUCACGUCGCAGCCCCUGUCAGAUUCUGGUGAAUCUGCGAAUUCUGCUGUAUAUCUC

In the data set the parent is B1. The data set is described as follows: self-cleavage, relative activity (ratio to wild type); higher = more cleavage; in vitro, sequencing. In outline: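 CPEB3 self-cleaving ribozyme mutant libraries were made by rounds of error-prone PCR, barcoded, and transcribed in vitro with T7 RNA polymerase for 5 hours at 37°C. Cleavage occurred during transcription and a 15 min DNase I step before EDTA stop. RNAs were reverse transcribed with template switching and Illumina-sequenced, with DNA sequencing mapping barcodes to variants. Relative activity is the variant's cleaved/total read fraction divided by wild type's (minimum 5 reads), averaged across three batches.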
Consider UAACAGGGGGCCACAGCAUAAGCGUCCACGUCGCGGCCCCUGUCAGGUUCUGGUGAAUCUGCGAAUUCUGCUGUGUAUCUC [G19U U26C A35G A47G A75G], for which the self-cleavage is 0.07.
Turning to UAACAGGGGGCCACAGCAGCGGCGUUCACGUCGCAGCCCCUGUUAGUUUCUGGUGAAUCUGCGAAUUCUGCUGUAUAUCUC [A20C A21G C44U A47U], the self-cleavage is 0.19.
UAACAGGGGGCCACAGCAGCAGCGUUCACGUCGCAGCCCCUGUCAGAUUCCGGUGAAUCUGCGAAUUCUGCUGUAUACCUC [A20C U51C U78C]: the self-cleavage amounted to 0.22.
For UAACAGGGGGCCACAGCAGCAGCGUUCACGACGCUGCCCCUGCCAGAAUCUGGUGAAUCUGCGAACUCUGCUGUUUAUCUC [A20C U31A A35U U43C U48A U66C A75U], the self-cleavage came out at 0.05.
In the case of UAACAGGGGGCCACAGCAGGGGCGCUCACGUCGCAGCCCCUGUCAGAUUCUGGAGAAUCUGCGAAUCCUGCUGUAUAUCUC [A20G A21G U25C U54A U67C], the self-cleavage stood at 0.04.
To UAACAGGGGGCCACAGCACAAGCGUUCUCGUCGCAGCCCCUGUCAGAUUCUGGUGAACCUGCGAAUUCUGCUGUAUAUCUC [G19C A28U U58C] belongs 0.17.
UAACAGGGGGCCACAGCAGCAGCGUUCACGUAGCUGCCCCUGUCAGAUUCUGGUGAAUCUGCGAAUUCAGCUGUAUAUCUC [A20C C32A A35U U69A]: the self-cleavage is 0.07.
Take UAACAGGGGGCCACAGCAUAAGCGUUCUCGUCGCAGCCCCUGUCAGGAUCUGGUGAAUCUGCGAAUUCUGCUGUAUAUCCC [G19U A28U A47G U48A U80C]: the self-cleavage came to 0.29.
To UAACAGGGGGCCACAGCAGCAGCUUUCACGUCGCAGCCCUUGUCAGAUUCUGGUGAAUCUGCGAGUUCUGCGGUAUAUCUC [A20C G24U C40U A65G U72G] belongs 0.1.
To UAACAGGGGGCCACAGCAGCAGCGUACACGUCGCAGCCCCUGUCAGACUCUGGUGAAUCUGCGAAUUCUGCAGUAUAUCUC [A20C U26A U48C U72A] belongs 0.09; to UAACAGGGGGCCACAGCAUAAGCGUCCACGUCGCAGCCCCUGUCAGGCUCUGGUGAAUCUGCGAAUUCUGCUGUAUAUCUC [G19U U26C A47G U48C], 0.22.
For the variant UAACAGGGGGCCACAGCAGCAGCGUUCGCGUCGCAGCCCCUGUCAGAUUCCGGUGAGUCUGCGAAUCCUGCUGUAUAUCUC [A20C A28G U51C A57G U67C], the self-cleavage was found to be 0.14.
Consider UAACAGGGGGCCACAGCAUAAGCGUUCACGUCGCAGCCCCUGCCAGAUCCUGGUGAAUCUGCGAGUUCUGCUGUAUACCUC [G19U U43C U49C A65G U78C], for which the self-cleavage was 0.08.
UAACAGGGGGCCACAGCAGGCGCGUACACGUCGCAUCCCCCGUCAGAUUCUGGUGAAUCUGCGAAUUCUGCUGUAUAUCUC [A20G A21C U26A G36U U41C]: the self-cleavage worked out at 0.18.
Regarding UAACAGGGGGCCACAGCAUAAGCGUUCAUGUCGCCGCCCCUGCCAGGUUCUGGUGAAUCUGCGAAUUCAGCUGUAUAUCUC [G19U C29U A35C U43C A47G U69A], the self-cleavage came out at 0.08.
For UAACAGGGGGCCACAGCACAAGCGUUCACGGCGCUGCCCCUGACAGAUUCUGGUGGAUCUGCGAAUUCUGCUGUAUAUCUC [G19C U31G A35U U43A A56G], the self-cleavage stood at 0.05.
With UAACAGGGGGCCACAGCAGCAGCGUUCACGACGCAGCCCCCGUCAGAUUCAUGUGAAUCUGCGAAUUCAGCUGUUUAUCUC [A20C U31A U41C U51A G52U U69A A75U], the self-cleavage stood at 0.17.
Under UAACAGGGGGCCACAGCACAAGCGUUCACGUCGCAGCCCCUGUCAGAUUCUGGUGAAUCUGCGAAUUCCGCUGUAUUCCUC [G19C U69C A77U U78C] stands 0.06.
As for UAACAGGGGGCCACAGCAGGGGCGAUCGCGUCGCAGCCCCUGUCAGAUUCUGGUGAAUCUGCGAAUUCUGCUGUAUAUCCC [A20G A21G U25A A28G U80C], the self-cleavage was found to be 0.08.
To UAACAGGGGGCCACAGCAUAAGCCUCCACGUCGCAGCCCCUGUCAGAUUCCGGUGAAUCUGCGGAUUCUGCUGUAUAUCUC [G19U G24C U26C U51C A64G] belongs 0.08.
Consider UAACAGGGGGCCACAGCAGCAGCGUCCACGUCGCAGCCCCUGUCAGAUUCUGGCGAAUCUGCGAAUUCUGCUGUAUAUUUC [A20C U26C U54C C79U], for which the self-cleavage worked out at 0.04.
As for UAACAGGGGGCCACAGCACAAGCGUUCACGUCGCGGCCCCUGUCAGAUUCUGGUGAAUCUGCGAAUUCUGCUGUAUACCUC [G19C A35G U78C], the self-cleavage turned out to be 0.58.
For UAACAGGGGGCCACAGCACAAGCGCUCACGUCGCAGCCCCUGUCAGAUUCCGGUGAGUCUGCGAAUUCUGCAGUAUAUCUC [G19C U25C U51C A57G U72A], the self-cleavage came out at 0.05.
Under UAACAGGGGGCCACAGCAUAAGCGUGCACGUCGCAGCCCCCGUCAGAUUCUGGUGAAUCUGCGAAUUCUGCUGUAUAUCUC [G19U U26G U41C] stands 0.12; under UAACAGGGGGCCACAGCAGGGGCGUUCACGUGGCAGCCCCUGUCAGAUACUGGUGAAUCUGCGAAUCCUGCUGCAUAUCAC [A20G A21G C32G U49A U67C U74C U80A], 0.05.
On to UAACAGGGGGCCACAGCAGCGGCGUUCACGCCGCAGCCCCUGUCAGAUUCUGGUGAAUCUGCGAAUUCUGCUGUAUAUCUC [A20C A21G U31C], for which the self-cleavage was 0.42.
For the variant UAACAGGGGGCCACAGCAUAAGCGUUCACGUCGCAGCCCCCGUCAGAUUCUGGUGAAUCUGCGGAUCCUGCUGUAUAUCUC [G19U U41C A64G U67C], the self-cleavage was 0.12.
On to UAACAGGGGGCCACAGCAGGGGCGUUCACGUCGCAACCCCUGUCGGAUUCUGGUGAAUCUGCGAGUUCUGCUGUAUAUCUC [A20G A21G G36A A45G A65G], for which the self-cleavage amounted to 0.08.
Consider UAACAGGGGGCCACAGCAGCAGCGUCCACGCCGCAGCCCCUGUCAGAUUCUGGUGAAUCUGCGAAUUCUGCAGUAUAUCUC [A20C U26C U31C U72A], for which the self-cleavage came out at 0.06.
Consider UAACAGGGGGCCACAGCAUAAGCGUCCACGUCGCAGCCCCUGUCAGAAUCUGGUGAAUCUGCGAAUUCUGCUGUAUAUCUC [G19U U26C U48A], for which the self-cleavage turned out to be 0.19.
In the case of UAACAGGGGGCCACAGCAUAAGCGUUCACGACGCUGCCCCUGUCAGAUUCUGGUGAAUCUGCGAAUUCUGCUGUAUAUCUC [G19U U31A A35U], the self-cleavage amounted to 0.13.
As to UAACAGGGGGCCACAGCAUAAGCUUUCACGUCGCAGCCCCUGUCAGACUCAGGUGAAUCUGCGAGUUCUGCUGUGUAUCUC [G19U G24U U48C U51A A65G A75G], the self-cleavage came to 0.09.
To UAACAGGGGGCCACAGCAUAAGCGUCCACGUCGCAGCCCCUGUCAGAUUCUGGUGAACCUGCGAAUUCUGCUGUAUAUCUC [G19U U26C U58C] belongs 0.45.
To UAACAGGGGGCCACAGCACAAGCGUCCACGUCACAGCCCCUGUCAGAUUCUGGUGAAUCCGCGAAUUCUGCUGUAUACCUC [G19C U26C G33A U60C U78C] belongs 0.06.
